# The supplement of paper PMC3334620
# In all, about 33,000 sequences were measured (“E-score (-0.5 to 0.5)”: median about -0.016, highest 2% from about 0.32 on). Some of the results follow.
# Target: T1, Stp1 (UniProt B3LFK1)
# T1 sequence: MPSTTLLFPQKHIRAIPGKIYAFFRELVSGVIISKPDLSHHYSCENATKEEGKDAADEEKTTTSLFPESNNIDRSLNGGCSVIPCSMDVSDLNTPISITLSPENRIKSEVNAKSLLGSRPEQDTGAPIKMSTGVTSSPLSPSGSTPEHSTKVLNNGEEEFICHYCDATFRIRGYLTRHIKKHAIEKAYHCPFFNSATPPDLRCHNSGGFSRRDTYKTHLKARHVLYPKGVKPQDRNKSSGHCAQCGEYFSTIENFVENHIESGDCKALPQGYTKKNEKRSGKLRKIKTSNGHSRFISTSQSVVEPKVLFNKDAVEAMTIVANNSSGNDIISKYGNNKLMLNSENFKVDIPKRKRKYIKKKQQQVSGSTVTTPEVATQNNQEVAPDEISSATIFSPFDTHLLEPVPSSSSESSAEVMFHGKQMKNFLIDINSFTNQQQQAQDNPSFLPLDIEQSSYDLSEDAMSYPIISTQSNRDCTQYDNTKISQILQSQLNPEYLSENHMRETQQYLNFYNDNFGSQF
# Assay: PBM E-score (8-mer binding enrichment) (E-score (-0.5 to 0.5)); higher = stronger / more preferred TF binding; most listed sequences are background and not binding sites
# Details: protein concentration: 200 nM; construct: GST-full length
# How it was run: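 E-scores (a modified Wilcoxon-Mann-Whitney statistic) were assigned by the Universal PBM Analysis Suite to every ungapped eight-base word pooled with its reverse complement. The input came from universal all-10-mer Agilent arrays made double-stranded by primer extension and probed with GST-tagged yeast transcription factors at about 100-200 nM. Fluorescent anti-GST detected bound protein, and masliner normalised the scans.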
row,Sequence,PBM E-score
1,GACTTCGA,-0.0767
2,ATAGTAAG,-0.016
3,AGTCCGCC,-0.105
4,CACGTACA,-0.192
5,GCTCAGGA,-0.0645
6,AAAGTGTT,0.0647
7,ACGAAGTA,-0.211
8,CGTTTTAG,0.0243
9,GGACCACA,-0.0525
10,AATGCGGT,-0.0107
11,CCTCCAGA,0.0135
12,AGGCAGAT,-0.112
13,AGGTTCCA,-0.203
14,ACTCGGGG,-0.233
15,CGGCAAAC,0.301
16,ACATCGCT,-0.129
17,GGACTGTA,-0.041
18,AGTGTTGC,0.0625
19,CAACGGCG,0.429
20,AAGAGAAG,-0.0838
21,AGCGTTGC,0.165
22,AGTCAGAG,-0.0983
23,TAATCGCA,0.0733
24,TAAATGCA,0.187
25,GGAGTCCA,-0.0786

row,Sequence,PBM E-score
1,TAATTAAA,-0.0674
2,ATCATTGG,-0.167
3,CATCCCTC,-0.0945
4,ATACACCC,0.0561
5,TGAACGAA,-0.0161
6,CAAGTGAA,0.00842
7,AATATGTA,0.154
8,AGGTTCGC,-0.134
9,ACGACAGG,0.0263
10,ACTCCGCC,-0.275
11,ACTCACCC,0.0941
12,TAGAACGA,0.145
13,CGATTCGC,0.179
14,GCCGACGA,-0.0419
15,ACGTAGAC,-0.203
16,CTGAGAGC,-0.0138
17,AGAGGTCC,0.00428
18,CGAACTAC,-0.031
19,ACTATAAC,-0.0133
20,GATTGCAA,0.125
21,ACAGTAGC,-0.174
22,AGATGCGC,0.0708
23,CTGACATA,0.0932
24,ACTATTCG,-0.00555
25,CGGCACTA,0.446

row,Sequence,PBM E-score
1,AAATCTTA,0.0712
2,CTTTCGTC,-0.107
3,CCGCATAA,0.255
4,CCAAGAAG,0.0504
5,AGGACACT,-0.162
6,TACTAGGA,-0.15
7,CCAATCGG,0.00216
8,ACCGAGCC,0.177
9,CCCGGTAG,-0.0861
10,CTCATCCA,-0.0965
11,TTGGGAAA,0.133
12,ATCTTACA,0.0887
13,TAATATCA,0.245
14,CGTAAAGC,-0.151
15,AGAAAAGC,0.0215
16,GGCGCACA,0.0949
17,GACGAGAA,0.0215
18,TACAATAA,0.228
19,GGGACGAC,-0.185
20,AGCGACGA,0.0002
21,TACCATAA,0.0798
22,GTGCCACA,0.199
23,ATGTTGCA,-0.0141
24,AAAGGTCA,-0.269
25,GGTCGTTA,-0.0438

row,Sequence,PBM E-score
1,CCCCGCTA,0.02
2,GGGTAGCA,-0.15
3,TCACCAGA,-0.169
4,CCTAACCA,-0.0397
5,AGAGACCG,-0.185
6,ATTGTCAC,-0.00565
7,GCCCAATA,0.0719
8,CTTGGAGC,-0.0465
9,GCACCTCC,-0.0763
10,GCCGTATA,0.475
11,CATGGAGC,-0.0867
12,AAAGCGGA,0.0227
13,CACTGCCC,-0.071
14,AGGCGGCG,0.391
15,CATCCGAA,0.0626
16,CGGCCGTC,0.16
17,AAGAGCGC,0.12
18,ACCCCCGG,-0.439
19,GGAACACA,-0.0655
20,ACTATCCC,-0.244
21,CGGGTAAG,-0.215
22,CGTTAAAA,-0.129
23,CCCAGTAC,-0.322
24,CCTGCATA,-0.107
25,AGGACTTA,-0.277

row,Sequence,PBM E-score
1,AATGGGTA,-0.00846
2,GCCCCTCC,-0.0987
3,CGCACAGC,0.166
4,CGCGGATC,0.111
5,AACGGTAT,-0.0397
6,AGCTGAAC,-0.29
7,AAATCTGG,0.0761
8,GGTAAACA,0.123
9,AGTGAAGC,0.00666
10,AAGGGGGC,-0.273
11,AATCGACC,-0.0501
12,ATGGGGAA,-0.107
13,GTGATCAC,-0.102
14,AAGTAAGG,-0.0479
15,TACTCGAA,0.0143
16,AAAGCATC,0.0151
17,AGTTCCCC,-0.14
18,CACCAGTC,-0.243
19,ATCGTAGG,-0.121
20,GCGACACA,0.103
21,AGATTGCA,0.019
22,CCGGGCAA,-0.0318
23,CGTAGATA,0.0891
24,ATATAATG,0.00952
25,ACTGTGGG,-0.0787

row,Sequence,PBM E-score
1,CGAGTGAC,-0.21
2,CCCGCGTC,0.16
3,TCCTTTAA,-0.0837
4,GAGTAGCC,-0.0857
5,GTGTCGCA,-0.101
6,GCGTTACC,-0.134
7,CCGCGAGC,-0.106
8,GGGAGACA,-0.346
9,AATGTGCC,0.323
10,TAAGGTAA,0.182
11,GCTGCAGC,-0.0493
12,GCGGATTA,0.0482
13,ACTTTGCT,-0.222
14,CGGGTTAC,0.09
15,CAAGGGTG,-0.138
16,GAGGTGTA,0.0828
17,CTACCGTC,-0.18
18,CTAGAGAG,-0.215
19,GGAACGAA,-0.0312
20,ACCCCTTA,-0.169
21,GTGTAAGA,-0.0215
22,CTTCAGGC,0.104
23,CGCTAGAG,-0.0905
24,AACGGATC,0.163
25,CGATTAGC,-0.196

row,Sequence,PBM E-score
1,ATCATTCA,0.15
2,AGACAACT,-0.0416
3,CTGCGCGA,-0.132
4,ATATGTGG,0.126
5,GCTTCGAA,0.0728
6,GAGAGAGA,-0.101
7,CGTCATAC,0.286
8,AATTCGGC,0.126
9,GCCTTTAA,0.121
10,CACAAGTC,-0.169
11,GGCCTGGA,-0.248
12,ATGATAAT,0.0876
13,ATGCTCGA,-0.129
14,CCGTCCCA,0.111
15,AATAATCG,0.0574
16,GCTCATAA,-0.0415
17,ATCAGGTC,-0.114
18,AGTGTCCC,-0.00868
19,GATGGGTA,-0.0338
20,AAAGTGGC,0.0644
21,TCTCTTAA,0.0949
22,AAACATGA,0.181
23,ACCGGTAG,-0.244
24,CTTTGACA,0.0516
25,CACCAGCC,-0.205

row,Sequence,PBM E-score
1,ACGGATAC,0.249
2,TATAGCGA,-0.151
3,CTTCGCAA,0.0365
4,GGGCCATA,-0.0704
5,CTTGGCCA,-0.209
6,ACGTTTGA,0.147
7,GCCAGAAC,0.0102
8,CTTGGCAC,0.0548
9,ATATAGCC,0.18
10,CGGGTAGC,-0.0768
11,AGCTCGAC,-0.0623
12,CCCAGGCC,-0.257
13,ATTACCTA,-0.0583
14,AGTTATAG,-0.00421
15,ATCTTCCA,-0.208
16,GCCTGTAA,-0.203
17,ATATCTAC,0.171
18,CGGTTGTC,-0.0804
19,GCGACTAA,0.103
20,AGATAACC,-0.153
21,ACTACCAA,-0.09
22,ACCGCGGA,-0.0118
23,GCCCAGCA,-0.107
24,CAGAGACG,0.0862
25,AGTGAGAG,-0.0794

row,Sequence,PBM E-score
1,ACGGGGAC,-0.164
2,GAAAGAAC,0.0768
3,CGTTGACA,0.0374
4,AGGAAGAA,-0.259
5,AGCTTTAC,-0.0906
6,AGACTAGG,-0.184
7,AACCTCGT,-0.0808
8,ATCTTAGG,0.039
9,ATCAGATA,-0.123
10,CGGATAGA,0.228
11,CCCACAGA,-0.23
12,GTGGTGGA,-0.0724
13,CGATTAGA,0.083
14,GGTACCTA,-0.202
15,AATCCGAC,-0.0643
16,AGTGGGCG,0.0679
17,CGTACTAA,0.169
18,GAAAGATA,0.0494
19,GGTGGCCA,-0.273
